# Results from the supplement of paper PMC8728848.
# This is one part of the list.
# B1: NPA (Narcissus pseudonarcissus), C0HM45 (protein)
# chain: DNILYSGETLSPGEFLNNGRYVFIMQEDCNLVLYDVDKPIWATNTGGLDRRCHLSMQSDGNLVVYSPRNNPIWASNTGGENGNYVCVLQKDRNVVIYGTARWATGTNIH
# Assays:
# Experiment in all cases: glycan array binding signal (z-score within array); higher = stronger binding
# Conditions in all cases: glycan notation: IUPAC condensed, linker removed
# [1] = target: GlcNAc(b1-2)[GlcNAc(b1-4)]Man(a1-3)[GlcNAc(b1-4)][GlcNAc(b1-2)[GlcNAc(b1-6)]Man(a1-6)]Man(b1-4)GlcNAc(b1-4)GlcNAc
# Method in brief: (§1)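 Negative Z-scores can be read as non-binding. The Z-score is calculated within each array and then averaged across arrays of one protein sequence at different concentrations or buffers and across linkers. Arrays, 3228 in all, were curated from the Consortium for Functional Glycomics database and kept only where the protein sequence was available.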
# [2] = target: GlcNAc(b1-2)[GlcNAc(b1-4)]Man(a1-3)[GlcNAc(b1-4)][GlcNAc(b1-2)[GlcNAc(b1-6)]Man(a1-6)]Man(b1-4)GlcNAc(b1-4)[Fuc(a1-6)]GlcNAc
# Method in brief: as §1
# [3] = target: GlcNAc(b1-2)[GlcNAc(b1-6)]Man(a1-6)[GlcNAc(b1-2)Man(a1-3)]Man(b1-4)GlcNAc(b1-4)GlcNAc
# Method in brief: as §1
# [4] = target: GlcNAc(b1-2)[GlcNAc(b1-6)]Man(a1-6)[GlcNAc(b1-2)Man(a1-3)]Man(b1-4)GlcNAc(b1-4)[Fuc(a1-6)]GlcNAc
# Method in brief: as §1
# [5] = target: GlcNAc(b1-2)[GlcNAc(b1-6)]Man(a1-6)[GlcNAc(b1-4)][GlcNAc(b1-2)Man(a1-3)]Man(b1-4)GlcNAc(b1-4)GlcNAc
# Method in brief: as §1
# GlcNAc(b1-3)Fuc = target: GlcNAc(b1-3)Fuc
# Method in brief: as §1
# GlcNAc(b1-3)Gal = target: GlcNAc(b1-3)Gal
# Method in brief: as §1
# [6] = target: GlcNAc(b1-3)Gal(b1-3)GalNAc
# Method in brief: as §1
# GlcNAc(b1-3)Gal(b1-4)Glc = target: GlcNAc(b1-3)Gal(b1-4)Glc
# Method in brief: as §1
# [7] = target: GlcNAc(b1-3)Gal(b1-4)GlcNAc
# Method in brief: as §1
# [8] = target: GlcNAc(b1-3)Gal(b1-4)GlcNAc(b1-2)Man(a1-3)[GlcNAc(b1-3)Gal(b1-4)GlcNAc(b1-2)Man(a1-6)]Man(b1-4)GlcNAc(b1-4)GlcNAc
# Method in brief: as §1
# [9] = target: GlcNAc(b1-3)Gal(b1-4)GlcNAc(b1-2)Man(a1-3)[GlcNAc(b1-3)Gal(b1-4)GlcNAc(b1-2)Man(a1-6)]Man(b1-4)GlcNAc(b1-4)[Fuc(a1-6)]GlcNAc
# Method in brief: as §1
# [10] = target: GlcNAc(b1-3)Gal(b1-4)GlcNAc(b1-2)[GlcNAc(b1-3)Gal(b1-4)GlcNAc(b1-6)]Man(a1-6)[GlcNAc(b1-3)Gal(b1-4)GlcNAc(b1-2)Man(a1-3)]Man(b1-4)GlcNAc(b1-4)GlcNAc
# Method in brief: as §1
# [11] = target: GlcNAc(b1-3)Gal(b1-4)GlcNAc(b1-3)Gal(b1-4)GlcNAc
# Method in brief: as §1
# [12] = target: GlcNAc(b1-3)Gal(b1-4)GlcNAc(b1-3)Gal(b1-4)GlcNAc(b1-2)Man(a1-3)[GlcNAc(b1-3)Gal(b1-4)GlcNAc(b1-3)Gal(b1-4)GlcNAc(b1-2)Man(a1-6)]Man(b1-4)GlcNAc(b1-4)GlcNAc
# Method in brief: as §1
# [13] = target: GlcNAc(b1-3)Gal(b1-4)GlcNAc(b1-3)Gal(b1-4)GlcNAc(b1-2)Man(a1-3)[GlcNAc(b1-3)Gal(b1-4)GlcNAc(b1-3)Gal(b1-4)GlcNAc(b1-2)Man(a1-6)]Man(b1-4)GlcNAc(b1-4)[Fuc(a1-6)]GlcNAc
# Method in brief: as §1
# [14] = target: GlcNAc(b1-3)Gal(b1-4)GlcNAc(b1-3)Gal(b1-4)GlcNAc(b1-2)[GlcNAc(b1-3)Gal(b1-4)GlcNAc(b1-3)Gal(b1-4)GlcNAc(b1-6)]Man(a1-6)[GlcNAc(b1-3)Gal(b1-4)GlcNAc(b1-3)Gal(b1-4)GlcNAc(b1-2)Man(a1-3)]Man(b1-4)GlcNAc(b1-4)[Fuc(a1-6)]GlcNAc
# Method in brief: as §1
# [15] = target: GlcNAc(b1-3)Gal(b1-4)GlcNAc(b1-3)Gal(b1-4)GlcNAc(b1-3)Gal(b1-4)GlcNAc(b1-2)Man(a1-3)[GlcNAc(b1-3)Gal(b1-4)GlcNAc(b1-3)Gal(b1-4)GlcNAc(b1-3)Gal(b1-4)GlcNAc(b1-2)Man(a1-6)]Man(b1-4)GlcNAc(b1-4)GlcNAc
# Method in brief: as §1
# [16] = target: GlcNAc(b1-3)Gal(b1-4)GlcNAc(b1-3)Gal(b1-4)GlcNAc(b1-3)Gal(b1-4)GlcNAc(b1-2)Man(a1-3)[GlcNAc(b1-3)Gal(b1-4)GlcNAc(b1-3)Gal(b1-4)GlcNAc(b1-3)Gal(b1-4)GlcNAc(b1-2)Man(a1-6)]Man(b1-4)GlcNAc(b1-4)[Fuc(a1-6)]GlcNAc
# Method in brief: as §1
# [17] = target: GlcNAc(b1-3)Gal(b1-4)GlcNAc(b1-3)Gal(b1-4)GlcNAc(b1-3)Gal(b1-4)GlcNAc(b1-2)[GlcNAc(b1-3)Gal(b1-4)GlcNAc(b1-3)Gal(b1-4)GlcNAc(b1-3)Gal(b1-4)GlcNAc(b1-6)]Man(a1-6)[GlcNAc(b1-3)Gal(b1-4)GlcNAc(b1-3)Gal(b1-4)GlcNAc(b1-3)Gal(b1-4)GlcNAc(b1-2)Man(a1-3)]Man(b1-4)GlcNAc(b1-4)[Fuc(a1-6)]GlcNAc
# Method in brief: as §1
# [18] = target: GlcNAc(b1-3)Gal(b1-4)GlcNAc(b1-3)Gal(b1-4)GlcNAc(b1-3)Gal(b1-4)GlcNAc(b1-3)Gal(b1-4)GlcNAc(b1-2)Man(a1-3)[GlcNAc(b1-3)Gal(b1-4)GlcNAc(b1-3)Gal(b1-4)GlcNAc(b1-3)Gal(b1-4)GlcNAc(b1-3)Gal(b1-4)GlcNAc(b1-2)Man(a1-6)]Man(b1-4)GlcNAc(b1-4)GlcNAc
# Method in brief: as §1
# [19] = target: GlcNAc(b1-3)Gal(b1-4)GlcNAc(b1-3)Gal(b1-4)GlcNAc(b1-3)Gal(b1-4)GlcNAc(b1-3)Gal(b1-4)GlcNAc(b1-2)Man(a1-3)[GlcNAc(b1-3)Gal(b1-4)GlcNAc(b1-3)Gal(b1-4)GlcNAc(b1-3)Gal(b1-4)GlcNAc(b1-3)Gal(b1-4)GlcNAc(b1-2)Man(a1-6)]Man(b1-4)GlcNAc(b1-4)[Fuc(a1-6)]GlcNAc
# Method in brief: as §1
binder,measurement,setting,value
B1,glycan array binding signal (z-score),[1],-0.149
same,glycan array binding signal (z-score),[2],-0.14
same,glycan array binding signal (z-score),[3],-0.143
same,glycan array binding signal (z-score),[4],-0.14
same,glycan array binding signal (z-score),[5],-0.156
same,glycan array binding signal (z-score),GlcNAc(b1-3)Fuc,-0.138
same,glycan array binding signal (z-score),GlcNAc(b1-3)Gal,-0.152
same,glycan array binding signal (z-score),[6],-0.134
same,glycan array binding signal (z-score),GlcNAc(b1-3)Gal(b1-4)Glc,-0.157
same,glycan array binding signal (z-score),[7],-0.154
same,glycan array binding signal (z-score),[8],-0.101
same,glycan array binding signal (z-score),[9],0.025
same,glycan array binding signal (z-score),[10],-0.038
same,glycan array binding signal (z-score),[11],-0.159
same,glycan array binding signal (z-score),[12],0.057
same,glycan array binding signal (z-score),[13],-0.065
same,glycan array binding signal (z-score),[14],0
same,glycan array binding signal (z-score),[15],-0.096
same,glycan array binding signal (z-score),[16],-0.041
same,glycan array binding signal (z-score),[17],0.035
same,glycan array binding signal (z-score),[18],-0.062
same,glycan array binding signal (z-score),[19],-0.07
